# Assay results reported in PubChem BioAssay AID652106 (National Center for Advancing Translational Sciences (NCATS), 2013).
# Among all 370,000 compounds or so, about 500 (0.14%) were called active. The shares of active, inactive and inconclusive entries below differ from those in the screen. Calls follow the shape of the dose curve; as a rule, active = well fitted activation curve with a large enough effect; inconclusive = small, poorly fitted or top-dose-only effect; inactive = no such curve, though single readings can be large or run the other way. No potency is given beside an inconclusive call; the fits are too rough.
# Assay: qHTS of alpha-syn Inhibitors; also: nearly all actives have a fitted effect of over 65% in size; as to growth rescue (activation): % of control where 0% means no effect
# Conditions: Yeast expressing alpha-synuclein, BacTiter-Glo, 24 h; Potency: growth rescue unless noted; growth rescue (activation): at 46.1 µM (top of the series) unless noted
# How it was run: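 Rescue of yeast growth: cells expressing toxic alpha-synuclein, induced in galactose at OD600 0.02, incubated with compound 24 h at 30 C. ATP luminescence quantified growth; inhibitors of toxicity appear as activators.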
# Potency is read from the fitted curve at half-maximal effect; tags tell the direction and shape of the fitted curve.
SMILES,growth rescue (activation),Potency
CN(C)N(C(=O)c1cc(-c2cccs2)nn1-c1ccccc1)C1CCS(=O)(=O)C1 (stereo unspecified),inactive: -1.28%,
COc1cc(C(O)c2nc(-c3cc(F)cc(F)c3)cs2)ccc1F (stereo unspecified),,"inconclusive [activator, single point]"
Cc1nc(SCc2ccccc2F)c2oc3ccccc3c2n1,,"inconclusive [activator, single point]"
COc1ccc(CC(=O)NNC(=O)CCC(=O)Nc2cc(C)ccc2C)cc1,inactive: -5.78%,
Cc1ccc(O)c(C(=O)CC(=O)c2ccc(Cl)cc2)c1,,"inconclusive [activator, single point]"
CCN(C(=O)CSc1nc2nc(C)cc(C)n2n1)c1cccc(C)c1,,"inconclusive [activator, single point]"
COc1ccc(C(=O)N2CCCC(C)(C(=O)NS(=O)(=O)C3CC3)C2)cc1 (stereo unspecified),,"inconclusive [activator, single point]"
CCCOc1ccc(N2C(=O)CC(N3CCN(c4ccccc4OC)CC3)C2=O)cc1 (stereo unspecified),,"inconclusive [activator, single point]"
O=C(CC(=O)c1ccncc1)c1ccccc1,,active: 20 µM
COC(=O)c1ccccc1NC(=O)c1cc(C2CC2)on1,,"inconclusive [activator, single point]"
C[C@H]1CN([C@@H](C)CO)C(=O)Cc2cc(NC(=O)Cc3cn(C)c4ccccc34)ccc2O[C@@H]1CN(C)S(=O)(=O)c1cn(C)cn1,,"inconclusive [activator, single point]"
c1ccc(-c2nn3c(-c4ccco4)nnc3s2)nc1,inactive: -15.4%,
O=c1c2cc(Br)ccc2nc(-c2cccc(Cl)c2)n1O,,"inconclusive [activator, partial curve]"
CCC/C=C/c1ccc(CN2C(C(C)C)C(=O)N(Cc3cn(CC4CCCCC4)nn3)CCS2(=O)=O)cc1 (stereo unspecified),,"inconclusive [activator, single point]"
O=C(NC(Cc1c[nH]c2ccccc12)C(=O)N/N=C/c1cccc2ccccc12)c1cccs1 (stereo unspecified),,"inconclusive [activator, single point]"
COc1ccc(-c2nnc(NC(=O)c3ccccc3C)o2)cc1,,"inconclusive [activator, single point]"
COC(=O)C1=C(C(=O)OC)[N+]2=C3N(C(=O)NC2(C)C)[C@H](CO)C[C@@]32c3ccccc3N(Cc3ccccc3)[C@@H]12,inactive: -1.18%,
Cc1oc2cc3oc(=O)c(CC(=O)N[C@@H](C)C(=O)NC(Cc4ccc(Cl)cc4)C(=O)O)c(C)c3cc2c1C (stereo partly specified),,"inconclusive [activator, single point]"
O=C(Nc1ccc(F)cc1)Nc1ccc(S(=O)(=O)N2CCCC2)cc1,,"inconclusive [activator, single point]"
CC(C)(C)c1ccc(OCCC(=O)NCCc2ccc(S(N)(=O)=O)cc2)cc1,inactive: 5.69%,
NC(=O)c1ccsc1NC(=O)COC(=O)Cc1ccc(F)cc1,,"inconclusive [activator, single point]"
CCOC(=O)C(C#N)(Cc1ccc2ccccc2n1)Cc1ccc2ccccc2n1,,"inconclusive [activator, partial curve]"

SMILES,growth rescue (activation),Potency
O=C1OCCN1C(=O)[C@H]1[C@H](c2ccccc2)C(c2ccc(F)cc2)=NN1c1ccc(Br)cc1,,"inconclusive [activator, partial curve]"
Cc1nc(CS(=O)(=O)c2ccc(Cl)cc2)sc1C(=O)O,,"inconclusive [activator, single point]"
N#C/C(=C/c1ccc2c(c1)OCO2)C(=O)NCCc1c[nH]c2ccccc12,,"inconclusive [activator, single point]"
COc1ccc(NC(=O)CNc2ccc(OC)c(S(=O)(=O)N3CCOCC3)c2)cc1,inactive: -0.991%,
CC(C)OC(=O)Cn1nc(C(c2ccccc2)c2ccccc2)oc1=O,,"inconclusive [activator, single point]"
Nc1nc(=S)c2[nH]c(=S)[nH]c2[nH]1,inactive: -6.96%,
Cc1n[nH]c(=S)n1-c1cccc(Cl)c1,inactive: -3.23%,
O=[N+]([O-])c1cc(O)c2ncccc2c1,,"inconclusive [activator, single point]"
O=S(=O)(NCc1ccccc1)c1ccc(NC(=S)NCc2ccco2)cc1,inactive: -7.43%,
Cc1ccc(S(=O)(=O)N2CCN(C(=O)c3ccccc3)C2)cc1[N+](=O)[O-],,"inconclusive [activator, single point]"
CCCCNC(=S)N/N=C/C1=CCC2CC1C2(C)C (stereo unspecified),inactive: -10.3%,
CCOC(=O)CSc1ncc(OC)c(Sc2ccc(Cl)cc2)n1,,"inconclusive [activator, single point]"
Cc1ccc(-c2ccc(CN3C(C)C(=O)N(Cc4cn(Cc5ccco5)nn4)CCS3(=O)=O)cc2)cc1 (stereo unspecified),,"inconclusive [activator, single point]"
Cc1ccc(S(=O)(=O)N(C)C)cc1NC(=O)CCCNC(=O)c1ccc(Cl)cc1,,"inconclusive [activator, single point]"
CCOC(=O)c1sc2nc(-c3ccco3)c3c(c2c1N)CC(C)(C)OC3,,"inconclusive [activator, single point]"
Cc1cc(/C=C2\C=Cc3ccccc32)cc(C)c1[N+](=O)[O-],,"inconclusive [activator, single point]"
CC(C)C(=O)Nc1nc(-c2ccc(S(=O)(=O)N3CCOCC3)cc2)cs1,inactive: -0.145%,
CC(=O)c1cnn(-c2ccc(Cl)cc2)c1C,,"inconclusive [activator, single point]"
COc1ccc(S(=O)(=O)N2CCC(C(=O)Nc3cc(Cl)ccc3N3CCOCC3)CC2)cc1OC,inactive: 1.74%,
CCc1ccc(-c2ccc(SCC(=O)NC3CCCC3)nn2)cc1,,"inconclusive [activator, single point]"
O=C1CCCc2c1cc(C(=O)NCCCN1CCOCC1)c(=O)n2-c1ccc(Cl)cc1,,"inconclusive [activator, single point]"
CCOC(=O)C1=C(CC)OC(N)=C(C#N)C1c1ccc(F)cc1F (stereo unspecified),,"inconclusive [activator, single point]"

SMILES,growth rescue (activation),Potency
O=C(Nc1nnc(-c2cccnc2)o1)c1cccc(Cl)c1,,"inconclusive [activator, single point]"
COc1ccc(/C=C2/SC(=S)N(CCC(=O)Nc3cccnc3)C2=O)cc1OC,,"inconclusive [activator, single point]"
O=C(NC1CCCC1)C(c1ccncc1)N(CCCN1CCOCC1)C(=O)c1ccc(-c2ccccc2)[nH]1 (stereo unspecified),inactive: 0.935%,
CC(C)(C)NC(=O)C(c1ccc(C(F)(F)F)cc1)n1c(=O)c(-c2ccco2)nc2ccccc21 (stereo unspecified),,"inconclusive [activator, single point]"
S=c1[nH]cnc2scc(-c3ccc(Br)cc3)c12,inactive: -3.42%,
C=CC[C@@H](CC(=O)N[C@H](CO)Cc1ccccc1)C(=O)N[C@@H](COC(=O)[C@@H](CC=C)Cc1ccc(F)cc1)Cc1ccccc1,,"inconclusive [activator, single point]"
CCOC(=O)C(C)On1c(-n2nc(C)cc2C)nc2ccccc2c1=O (stereo unspecified),,"inconclusive [activator, single point]"
CCCN1CNc2c(c(=O)[nH]c(=S)n2CCc2cccc(C)c2)C1,inactive: 1.98%,
Nc1ccc(-c2nc3ncccc3o2)c(O)c1,,"inconclusive [activator, single point]"
O=C(c1cccc(F)c1)N1CCC(c2nc3ccccc3s2)CC1,inactive: 4.39%,
Cc1ccc(Cn2c(C(CO)Nc3nc(-c4ccc(Cl)c([N+](=O)[O-])c4)cs3)nc3ccccc32)cc1 (stereo unspecified),,"inconclusive [activator, partial curve]"
Cc1cc(Cl)ccc1OCC(=O)N(Cc1ccco1)c1c(N)n(Cc2ccccc2)c(=O)[nH]c1=O,,"inconclusive [activator, single point]"
CCc1nnc(NC(=O)C2Cc3ccccc3CN2S(=O)(=O)c2cccs2)s1 (stereo unspecified),inactive: 2.55%,
O=C(O)CSc1nc2ccccc2s1,,"inconclusive [activator, single point]"
CC(C)CC1NC(=O)c2cc3ccccc3cc2-n2c1nc1ccc(F)cc1c2=O (stereo unspecified),,"inconclusive [activator, single point]"
O=C(Nc1cccc(C(F)(F)F)c1)C1Cc2c(-c3ccccc3)ccnc2O1 (stereo unspecified),,"inconclusive [activator, single point]"
CC(C)C(NC(=O)c1ccccc1)C(=O)NCc1ccccn1 (stereo unspecified),,"inconclusive [activator, single point]"
CNC(=S)N1CCC(NC(=O)C23CC4CC(CC(C4)C2)C3)CC1,,"inconclusive [activator, single point]"
COc1cccc(C(=O)NCCSCc2c(F)cccc2Cl)c1,inactive: 12.5%,
CCCC(C)(C)C(=O)N1CCC1(C)C(=O)Nc1cccc2ccccc12 (stereo unspecified),,"inconclusive [activator, single point]"
Cc1ccc(CNC(=O)COC(=O)c2ccccc2OCC(=O)Nc2ccc(Br)cc2)cc1,,"inconclusive [activator, single point]"
COc1cccc(/C=C2\SC(=S)N(CCCC(=O)N3CCCCC3CCO)C2=O)c1 (stereo unspecified),,"inconclusive [activator, single point]"
